Assay results reported in paper PMC12040169 (PLOS Biology, 2025).
This is one part of the list.

These molecules were tested on T1, C. trachomatis L2/434/Bu expressing GFP (CTL2-GFP). Conditions: total inclusion area; 28.5 h, 10 µM; inhibitor.
T1 construct: L2/434/Bu GFP intracellular growth in HeLa cells
Design: species or system HeLa; C. trachomatis total inclusion area by high-content imaging, normalised to DMSO
Summary of the method: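 High-content imaging followed the bulk GFP/resorufin measurement: fixed, Hoechst-stained cells were scored for GFP inclusions and host nuclei per well. Total inclusion area and count served as growth proxies, nuclei number as the viability proxy. MIC calculation matched the bulk assay.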

SMILES	% of control remaining
O=[N+]([O-])c1ccccc1S(=O)(=O)N1CCN(C2CCCCCC2)CC1 [CBK264171G]	128.476
Cc1cc2cc(C(=O)NCCCN3Cc4ccccc4C3)ccc2o1 [CBK282624]	114.513
CCc1nc2ccc(C(=O)NCc3ccc4c(c3)OCO4)cn2c1N(CCN(C)C)CC1CC1 [CBK145472]	138.269
CSc1nnc2n3ncnc3c3c4c(sc3n12)CCCC4C (stereo not drawn) [CBK288542]	82.9987
CS(=O)(=O)c1ccc(-n2nnnc2CN2CCC3(CCCCC3)C2)cc1 [CBK306183]	40.6109
Cc1cc(C)nc(SCC(=O)Nc2ccc(C(=O)O)cc2)n1 [CBK263223]	63.3883
O=C(NC(=S)Nc1ccc(-c2nc3ccccc3o2)c(O)c1)c1cncc(Br)c1 [CBK264931]	98.3368
COc1cnn(-c2ccccc2)c(=O)c1N(C)C [CBK020317]	72.6064
O=C(CSc1nnc(-c2cccnc2)o1)Nc1ccccc1 [CBK287742]	71.4171
CS(=O)(=O)c1ccc(Cn2ccnc(OC3CCN(C(=O)c4ccc(C#N)cc4)CC3)c2=O)cc1 [CBK161804]	91.8297
Cc1nn(C)cc1C(C)NC(=O)c1cn2cccc(C)c2n1 (stereo not drawn) [CBK281731]	128.734
COc1ccc(-c2ccnc(N[C@H]3CO[C@H]4[C@@H]3OC[C@@H]4NC(=O)c3ccccc3)n2)cc1 [CBK289526]	109.359
CC(=O)Nc1ccc(S(N)(=O)=O)cc1Cl [CBK028784]	88.9813
CSC(C)CCN1CCn2nc(CNc3cnccn3)cc2C1 (stereo not drawn) [CBK307376]	46.6872
CCc1cc(=O)[nH]c(-c2ccc(N(C)CC(C)O)nc2)n1 (stereo not drawn) [CBK306484]	55.7722
O=C(Nc1ccc(I)cc1C(=O)NCCN1CCOCC1)c1ccco1 [CBK266211]	94.0657
CN1CCN(C(=S)Nc2ccc(S(N)(=O)=O)cc2)CC1 [CBK265223]	97.5631
CCc1nnc(NS(=O)(=O)c2ccc(OC(F)(F)F)cc2)s1 [CBK026672]	84.9442
Cc1c(Br)c(C(F)(F)F)nn1CC(=O)Nc1cc(C(F)(F)F)ccc1Cl [CBK087518]	82.7824
Fc1ccc(-c2cncc(Nc3ccc4c(c3)OC(F)(F)C(F)(F)O4)n2)c(F)c1 [CBK065692]	102.398
CNC(=O)CSc1nnc2[nH]c(=O)c(C)c(C)n12 [CBK287687]	70.7922

SMILES	% of control remaining
Cc1cc(C)c(S(=O)(=O)NCCSCCC(=O)O)c(C)c1 [CBK013358]	89.6625
COc1ccc(CCNC(=O)CN2CCCC2c2cnn(C)c2)cc1 (stereo not drawn) [CBK305371]	75.3394
COCc1nc2n(n1)CC(NC(C)C(C)OCc1ccccc1)CC2 (stereo not drawn) [CBK304724]	74.8908
Cc1ccc2c(C(=O)Nc3sc4c(c3C(N)=O)CCCCC4)cc(-c3ccccn3)nc2c1C [CBK267749]	113.5
COC(=O)c1ccc(CC(C)C)nc1SC1=NCCCN1 [CBK005294C]	95.8243
CCn1c(=O)n(CC(=O)N(C)C2CCCCC2)c2cccnc21 [CBK283786]	85.4336
Cc1noc(C)c1C(=O)N[C@H]1CO[C@H]2[C@@H]1OC[C@H]2OCc1ccccc1 [CBK289458]	91.6122
Cc1ccc(S(N)(=O)=O)cc1C(=O)NC(C)CCc1ccccc1 (stereo not drawn) [CBK296671]	62.3022
O=C(c1cccnc1)N1CCN(C(=O)c2ccco2)CC1 [CBK072684]	87.8407
OC(CN1CCC(O)(c2ccccc2F)CC1)c1ccccc1 (stereo not drawn) [CBK282490]	80.7222
CC(C)(C)OC(=O)NC1CCN(C(=O)Nc2ccc(OCc3ccccc3)cc2)CC1 [CBK086602]	71.14
Cc1cc(NC(=O)CN2CCN(Cc3ccccc3C#N)CC2)no1 [CBK305644]	101.445
Cn1cccc1C(=O)N[C@H]1C[C@H]2C(=O)Nc3cc(Cl)ccc3C(=O)N2C1 [CBK289364]	97.4164
Clc1ccc(-n2c(COc3cccc4cccnc34)nnc2SCc2ccccc2)cc1 [CBK268502]	110.421
CCCc1n[nH]c(C(C)C)c1C(=O)OCC [CBK115724]	91.525
N#Cc1cccc(Cn2cc(NC(=O)NCCc3cccs3)cn2)c1 [CBK043824]	87.9469
CCOc1ccc(N(CCC#N)C(=O)Cn2nc(C(=O)O)c3ccccc3c2=O)cc1 [CBK297502]	97.6141
CCN(CC)C(=O)CN1CCC(Oc2nccnc2OCc2cc(C)on2)CC1 [CBK082959T]	106.239
CCOC(=O)N/N=C(/C)c1ccc(Br)s1 [CBK019480]	110.894
O=C(O)CCC(=O)Nc1ccc(C(=O)O)cc1 [CBK260952]	103.74
CN(CCc1cn[nH]c1)C(=O)CCc1ccc(Cl)cc1 [CBK283183]	77.2447

SMILES	% of control remaining
O=C1S/C(=C\c2ccc(F)c(Br)c2)C(=O)N1c1cccc(Cl)c1 [CBK095450]	91.3447
NC(=O)C1(Cc2cccc(-c3cccs3)c2)CCN(C(=O)Cc2cccc(F)c2)CC1 [CBK285783]	104.265
CCOC(=O)c1cnc2c(C)c(Cl)ccc2c1NCCCN1CCOCC1 [CBK265296]	84.8044
Cc1nc2c(C(=O)NCCC3OCCO3)cnn2c(C)c1Cc1cccnc1 [CBK162159]	39.6142
COc1ncc(-c2nccnc2OCc2ccccc2)c(OC)n1 [CBK106748]	92.0763
COc1c(C(=O)O)cc(C)c2c1CCC2C (stereo not drawn) [CBK013617]	95.9315
CC(C)C(=O)N1C2CCC1Cn1c(nc3ccccc3c1=O)C2 (stereo not drawn) [CBK284450]	95.6954
Cc1nc(NS(=O)(=O)c2cc(F)c(Br)cc2F)sc1C(=O)O [CBK045556]	98.1184
CC(C)(C)C(=O)CN1CCC(C(=O)NC(c2ccccc2)c2ccco2)CC1 (stereo not drawn) [CBK148298]	118.873
Cc1ccccc1NC(=O)CC(C(=O)O)N(C)C (stereo not drawn) [CBK266924]	97.0204
Clc1ccc(-n2ncc(-c3cccnc3)n2)cc1Cl [CBK112814]	91.9765
O=C(O)CCC(=O)NCc1ccc(-c2nccnc2NS(=O)(=O)c2ccc(O)cc2)cc1 [CBK073843]	81.8066
COC(=O)c1ccccc1NC(=O)CSc1nc(C)cc(C)n1 [CBK263818]	98.0114
O=C(C1CCCC1)N1CCC[C@@H]1Cn1c(=O)oc2ccccc21 [CBK284539]	118.436
COc1nccnc1OC1CCN(Cc2ccccc2)CC1 [CBK084238]	100.492
COc1ccc(OC)c(C2CC(c3ccc(NS(C)(=O)=O)cc3)=NN2C(=O)CCC(=O)O)c1 (stereo not drawn) [CBK297781]	90.1557
CN(C)S(=O)(=O)c1ccc(C(=O)Nc2ccc(-c3ccccc3)cc2)cc1 [CBK264978]	104.673
O=C(CSc1nnc(CN2CCOCC2)n1-c1ccc(Cl)cc1)N1CCc2ccccc21 [CBK269008]	69.3638
CN(C)S(=O)(=O)N(CC(=O)NCc1ccncc1)c1ccccc1 [CBK268322]	117.124
Cn1nnc2c(N3CCN(C(=O)c4ccccc4)CC3)ncnc21 [CBK287830]	125.337
CCOC(=O)C(C)n1nc(C)n2c(cc3sccc32)c1=O (stereo not drawn) [CBK283333]	90.6282

SMILES	% of control remaining
CCn1cc(CC(=O)Nc2cccc(-n3cnnc3)c2)c2ccccc21 [CBK282669]	139.536
CN(C)CCNC(=O)c1cccc(-c2cncc(N3CCN(c4ccncc4)CC3)n2)c1 [CBK065391]	105.626
CN(C)CC1CCCCN1C(=O)C1C2CCCCC21 (stereo not drawn) [CBK282087]	118.946
CCN1CC2(CCN(CC3CC3)CC2)c2ccccc21 [CBK136987]	65.4636
CCc1nnc(NS(=O)(=O)c2cc(C(=O)O)c(Cl)cc2F)s1 [CBK062195]	110.353
O=C(NCC1(c2ccccc2F)CCOCC1)[C@@H]1C[C@@H]2C=C[C@H]1C2 [CBK281552]	102.371
CC(C)n1ccnc1CN1CCn2nc(CNc3cnccn3)cc2C1 [CBK306902]	62.4012
COCCNC(=O)c1cc(-c2ccccc2C)cnc1NS(C)(=O)=O [CBK106422]	101.542
Cc1cnc2c(C(=O)Nc3cccc(CCc4ccncc4)c3)cnn2c1 [CBK285558]	101.464
CC(NC(=O)Cn1c(=O)oc2ccc(Cl)cc21)C1CC2CCC1C2 (stereo not drawn) [CBK281636]	78.9276
Cn1nccc1C(=O)C1CCN(C(=O)c2cc3c(s2)CCC3)CC1 [CBK284427]	85.4444
Cc1ccc(NC(=O)c2ccc(-c3ccccc3)cc2)c(OC(=O)c2ccc(-c3ccccc3)cc2)c1 [CBK261347]	93.2873
OCCOc1ccccc1-c1cc[nH]n1 [CBK001973]	59.8007
CN1CCC(C(=O)NC2Cc3ccccc3C2)CC1 [CBK200263]	116.425
O/N=C/c1c[nH]c2ccccc12 [CBK168630]	93.5347
CC(=O)CCC(=O)N1CCN(C(=O)c2ccc(-c3ccc(S(C)(=O)=O)cc3)cn2)CC1 [CBK160484]	103.039
CN1CCCc2ccc(S(=O)(=O)Nc3ccc4nncn4c3)cc21 [CBK306435]	36.2863
O=C(c1ccccc1Nc1cccc(C(F)(F)F)c1)N1CCN(c2ccccn2)CC1 [CBK012634]	66.4794
